System: Vcap cells (androgen receptor (+) prostate cancer cells)
Experiment: CTG cell proliferation assay (CellTiter-Glo), compounds alone or in combination
[1] = 1 μM tested compound in combination with 1 μM B001 and 1 μM Galeterone
[2] = 10 μM tested compound in combination with 1 μM B001 and 1 μM Abiraterone acetate

SMILES | Survival rate of Vcap cells (1 μM tested compound in combination with 1 μM B001 and 1 μM Abiraterone acetate) [%] | Survival rate of Vcap cells [1] [%] | Survival rate of Vcap cells (1 μM tested compound in combination with 1 μM B001 and 1 μM ODM-201) [%] | Survival rate of Vcap cells [2] [%] | Survival rate of Vcap cells (10 μM tested compound in combination with 1 μM B001 and 1 μM ODM-201) [%] | Survival rate of Vcap cells (1 μM tested compound in combination with 1 μM B001 and 1 μM prednisone) [%] | Survival rate of Vcap cells (10 μM tested compound in combination with 1 μM B001 and 1 μM Galeterone) [%] | Survival rate of Vcap cells (10 μM tested compound in combination with 1 μM B001 and 1 μM prednisone) [%]
CC1(C)C(=O)N(c2ccc(C#N)c(C(F)(F)F)c2)C(=S)N1c1ccc(OC[C@@H](O)CO)cc1 [AR3-3] | 58.5 | 54.6 | 56.7 | 43.6 | 50.3 |  |  | 
CC1(C)C(=O)N(c2ccc(C#N)c(C(F)(F)F)c2F)C(=S)N1c1ccc(CCCc2ncco2)nc1 [AR2-5] |  | 68.6 |  | 60.0 |  | 67.2 | 62.7 | 56.1
